In the supplement of paper PMC9046079:
Counter-ions that a name gives are not always drawn. ± gives the standard deviation of the averaged measurements. Some of the results follow.

Columns and labels:
[1] = test system: murine small intestinal organoids (ENR+CD Paneth differentiation); assay: cellular ATP (CellTiter-Glo 3D) relative to plate median (log10 fold change); higher = more viable cells; settings: 6 d
[2] = test system: murine small intestinal organoids (ENR+CD Paneth differentiation); assay: carbachol-stimulated secreted lysozyme activity relative to plate median (log10 fold change); higher = more Paneth cell lysozyme secretion; settings: 6 d, carbachol 10 µM
[3] = test system: murine small intestinal organoids (ENR+CD Paneth differentiation); assay: basal (non-stimulated) secreted lysozyme activity relative to plate median (log10 fold change); higher = more Paneth cell lysozyme secretion; settings: 6 d
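Wherever basal (non-stimulated) secreted lysozyme activity relative to plate median is given: ISC-enriched organoid precursors grown as 2.5D pseudo-monolayer on Matrigel, compound given on day 0 and day 3, plate values LOESS-normalized before median fold change, three murine donors.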
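Wherever cellular ATP (CellTiter-Glo 3D) relative to plate median is given: 2.5D pseudo-monolayer culture of ISC-enriched organoids partly embedded atop Matrigel, compound added on day 0 and again on day 3, per-plate LOESS correction before median fold change.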

SMILES | cellular ATP (log10) ([1]; 0.08 µM) | cellular ATP (log10) ([1]; 0.4 µM) | cellular ATP (log10) ([1]; 2 µM) | cellular ATP (log10) ([1]; 10 µM) | carbachol-stimulated secreted lysozyme activity (log10) ([2]; 0.08 µM) | carbachol-stimulated secreted lysozyme activity (log10) ([2]; 0.4 µM) | carbachol-stimulated secreted lysozyme activity (log10) ([2]; 2 µM) | carbachol-stimulated secreted lysozyme activity (log10) ([2]; 10 µM) | basal (log10) ([3]; 0.08 µM) | basal (log10) ([3]; 0.4 µM) | basal (log10) ([3]; 2 µM) | basal (log10) ([3]; 10 µM)
Cc1noc(-c2ccc(CSCCC(=O)O)cc2)c1NC(=O)OC(C)c1ccccc1Cl (stereo unspecified) | -0.0508 ± 0.18 | -0.00214 ± 0.067 | -0.0776 ± 0.17 | -0.165 ± 0.13 | -0.0125 ± 0.09 | 0.136 ± 0.26 | 0.0188 ± 0.028 | -0.114 ± 0.093 | 0.000572 ± 0.031 | 0.117 ± 0.18 | -0.00788 ± 0.043 | -0.0376 ± 0.095
Cc1cc(OCc2nnc(SC3CCCC3)n2-c2cccnc2)ccc1-c1ccc(S(C)(=O)=O)cc1 | 0.174 ± 0.2 | -0.051 ± 0.03 | -0.91 ± 0.5 | -1.54 ± 0.63 | 0.0756 ± 0.11 | -0.296 ± 0.072 | -0.452 ± 0.042 | -0.47 ± 0.11 | 0.098 ± 0.23 | -0.177 ± 0.12 | -0.27 ± 0.15 | -0.272 ± 0.14
Cc1ccc(-c2cc(C(F)(F)F)nn2-c2ccc(S(N)(=O)=O)cc2)cc1 [Celecoxib] | -0.0344 ± 0.27 | -0.299 ± 0.27 | -0.118 ± 0.25 | -0.128 ± 0.17 | -0.0856 ± 0.15 | -0.101 ± 0.23 | -0.118 ± 0.17 | -0.178 ± 0.0085 | -0.0413 ± 0.055 | -0.0532 ± 0.081 | -0.0843 ± 0.038 | -0.0994 ± 0.04
OC(CNCC(O)C1CCc2cc(F)ccc2O1)C1CCc2cc(F)ccc2O1 (stereo unspecified) [Nebivolol] | 0.388 ± 0.2 | 0.22 ± 0.15 | 0.312 ± 0.035 | 0.209 ± 0.14 | 0.181 ± 0.25 | 0.323 ± 0.082 | 0.0593 ± 0.1 | 0.123 ± 0.13 | 0.175 ± 0.086 | 0.319 ± 0.28 | 0.11 ± 0.1 | 0.096 ± 0.047
CC(C)[C@H](O)C(=O)N[C@@H](C)C(=O)N[C@@H]1C(=O)N(C)CCc2ccccc21 | -0.0244 ± 0.35 | -0.202 ± 0.14 | -0.00979 ± 0.31 | -0.678 ± 0.85 | -0.106 ± 0.2 | -0.0992 ± 0.15 | -0.112 ± 0.011 | -0.0827 ± 0.08 | -0.0426 ± 0.084 | -0.0257 ± 0.067 | -0.0787 ± 0.049 | -0.0551 ± 0.086
O=C(Nc1cccc(Nc2ncc(Br)c(NCCc3cnc[nH]3)n2)c1)N1CCCC1 | 0.0431 ± 0.23 | 0.0541 ± 0.095 | -0.246 ± 0.15 | -0.397 ± 0.43 | -0.00103 ± 0.082 | 0.0196 ± 0.2 | -0.231 ± 0.067 | -0.361 ± 0.026 | 0.0103 ± 0.084 | 0.0173 ± 0.085 | -0.0886 ± 0.075 | -0.196 ± 0.088
NC1(c2ccc(-c3nc4ccn5c(=O)[nH]nc5c4cc3-c3ccccc3)cc2)CCC1 | 0.0707 ± 0.097 | -0.0232 ± 0.13 | -0.178 ± 0.23 | -0.54 ± 0.13 | 0.0392 ± 0.11 | 0.149 ± 0.34 | -0.265 ± 0.015 | -0.442 ± 0.096 | 0.0236 ± 0.029 | -0.0632 ± 0.072 | -0.182 ± 0.051 | -0.236 ± 0.086
C[C@]1(O)C[C@@H](c2nc(-c3ccc4ccc(-c5ccccc5)nc4c3)c3c(N)nccn32)C1 [OSI-906 (Linsitinib)] | -0.324 ± 0.062 | -0.158 ± 0.23 | -0.277 ± 0.18 | -0.391 ± 0.16 | -0.0883 ± 0.1 | -0.16 ± 0.051 | -0.361 ± 0.12 | -0.42 ± 0.091 | 0.0126 ± 0.11 | -0.0926 ± 0.051 | -0.216 ± 0.12 | -0.229 ± 0.079
CCCC(C)NC(=O)c1ccc(Cl)c(Cl)c1 (stereo unspecified) | -0.0587 ± 0.046 | -0.0714 ± 0.2 | -0.0591 ± 0.13 | -0.0577 ± 0.14 | 0.0192 ± 0.057 | 0.186 ± 0.28 | -0.005 ± 0.06 | -0.0578 ± 0.052 | 0.00813 ± 0.013 | -0.0282 ± 0.028 | 0.0184 ± 0.015 | -0.0654 ± 0.052
CCOC(=O)[C@H](CCc1ccccc1)N[C@@H](C)C(=O)N1C(=O)N(C)C[C@H]1C(=O)O [Imidapril HCl] | -0.333 ± 0.14 | -0.148 ± 0.077 | -0.236 ± 0.27 | -0.227 ± 0.15 | -0.0566 ± 0.096 | 0.18 ± 0.32 | -0.0367 ± 0.039 | -0.126 ± 0.086 | -0.00562 ± 0.056 | 0.000457 ± 0.062 | 0.0139 ± 0.079 | -0.0811 ± 0.092
CC(C)(C)c1cnc(CSc2cnc(NC(=O)C3CCNCC3)s2)o1 | -0.413 ± 0.65 | -0.14 ± 0.25 | -0.569 ± 0.15 | -0.779 ± 0.34 | -0.199 ± 0.29 | -0.144 ± 0.13 | -0.306 ± 0.24 | -0.319 ± 0.16 | -0.0964 ± 0.15 | -0.0928 ± 0.086 | -0.192 ± 0.17 | -0.216 ± 0.12
COC(=O)C1=C(C#N)NC(C)=C(C(=O)OC(C)C)C1c1cccc([N+](=O)[O-])c1 (stereo unspecified) [Nilvadipine] | 0.206 ± 0.18 | 0.135 ± 0.29 | 0.212 ± 0.26 | 0.192 ± 0.32 | 0.0903 ± 0.24 | -0.0432 ± 0.0088 | -0.074 ± 0.041 | -0.0988 ± 0.078 | 0.0984 ± 0.11 | 0.00387 ± 0.1 | 0.0575 ± 0.2 | 0.00943 ± 0.072
CC(C)c1onc(-c2c(Cl)cccc2Cl)c1COc1ccc(/C=C/c2cccc(C(=O)O)c2)c(Cl)c1 | -0.134 ± 0.095 | 0.14 ± 0.083 | -0.145 ± 0.23 | -0.157 ± 0.095 | 0.0217 ± 0.12 | 0.141 ± 0.089 | 0.0435 ± 0.059 | -0.06 ± 0.071 | 0.17 ± 0.18 | -0.0223 ± 0.018 | 0.0225 ± 0.076 | -0.0593 ± 0.042
O=C(c1ccc(F)cc1)N1CCCC(c2nc(-c3ccc(F)cc3)no2)C1 (stereo unspecified) | 0.115 ± 0.2 | -0.0341 ± 0.1 | -0.21 ± 0.15 | -0.0395 ± 0.14 | 0.1 ± 0.083 | 0.19 ± 0.15 | -0.0441 ± 0.19 | -0.122 ± 0.12 | 0.269 ± 0.12 | 0.0525 ± 0.041 | -0.0328 ± 0.12 | -0.0357 ± 0.12
CC[C@@H]1C(=O)N(C)c2cnc(Nc3ccc(C(=O)NC4CCN(C)CC4)cc3OC)nc2N1C1CCCC1 | 0.029 ± 0.18 | -0.534 ± 0.39 | -0.511 ± 0.49 | -1.03 ± 0.64 | -0.22 ± 0.087 | -0.296 ± 0.064 | -0.301 ± 0.028 | -0.223 ± 0.055 | -0.104 ± 0.061 | -0.129 ± 0.1 | -0.134 ± 0.068 | -0.109 ± 0.064
COC(=O)CCSCc1ccc(-c2onc(C)c2NC(=O)OC(C)c2ccccc2Cl)cc1 (stereo unspecified) | -0.011 ± 0.22 | -0.108 ± 0.11 | -0.0325 ± 0.058 | 0.0219 ± 0.11 | 0.0351 ± 0.17 | 0.0365 ± 0.049 | -0.000381 ± 0.051 | -0.0389 ± 0.064 | 0.00504 ± 0.011 | -0.00876 ± 0.036 | 0.0596 ± 0.21 | -0.103 ± 0.048
NC(=O)c1ccc(I)c([N+](=O)[O-])c1 [Iniparib (BSI-201)] | 0.339 ± 0.22 | 0.181 ± 0.36 | 0.157 ± 0.16 | 0.244 ± 0.17 | -0.0178 ± 0.15 | 0.0365 ± 0.071 | -0.0397 ± 0.088 | -0.00295 ± 0.051 | 0.0418 ± 0.046 | 0.000353 ± 0.081 | 0.0158 ± 0.087 | -0.016 ± 0.018
NC1CC1c1ccc(-c2cccc(O)c2)cc1 (stereo unspecified) | 0.0943 ± 0.23 | 0.138 ± 0.24 | 0.128 ± 0.054 | 0.094 ± 0.096 | 0.048 ± 0.043 | 0.0111 ± 0.086 | -0.0297 ± 0.03 | -0.0781 ± 0.095 | -0.000114 ± 0.0089 | -0.0111 ± 0.08 | 0.0209 ± 0.027 | -0.0907 ± 0.057
